Screen size: about 110,000 compounds; about 230 (0.21%) showed an effect of 50% or more. Some of the results follow.
target: DPAP1 (Plasmodium falciparum, UniProt Q8IIJ9); assay: primary screen, percent inhibition; read by cleavage of a fluorogenic dipeptide substrate; higher = more effect of the substance; design: species or system P. falciparum D10 trophozoite lysates; single well
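Also: 30 min substrate incubation versus DMSO and 10 µM JCP410 controls.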

DPAP1, sequence (Q8IIJ9 whole entry, looked up): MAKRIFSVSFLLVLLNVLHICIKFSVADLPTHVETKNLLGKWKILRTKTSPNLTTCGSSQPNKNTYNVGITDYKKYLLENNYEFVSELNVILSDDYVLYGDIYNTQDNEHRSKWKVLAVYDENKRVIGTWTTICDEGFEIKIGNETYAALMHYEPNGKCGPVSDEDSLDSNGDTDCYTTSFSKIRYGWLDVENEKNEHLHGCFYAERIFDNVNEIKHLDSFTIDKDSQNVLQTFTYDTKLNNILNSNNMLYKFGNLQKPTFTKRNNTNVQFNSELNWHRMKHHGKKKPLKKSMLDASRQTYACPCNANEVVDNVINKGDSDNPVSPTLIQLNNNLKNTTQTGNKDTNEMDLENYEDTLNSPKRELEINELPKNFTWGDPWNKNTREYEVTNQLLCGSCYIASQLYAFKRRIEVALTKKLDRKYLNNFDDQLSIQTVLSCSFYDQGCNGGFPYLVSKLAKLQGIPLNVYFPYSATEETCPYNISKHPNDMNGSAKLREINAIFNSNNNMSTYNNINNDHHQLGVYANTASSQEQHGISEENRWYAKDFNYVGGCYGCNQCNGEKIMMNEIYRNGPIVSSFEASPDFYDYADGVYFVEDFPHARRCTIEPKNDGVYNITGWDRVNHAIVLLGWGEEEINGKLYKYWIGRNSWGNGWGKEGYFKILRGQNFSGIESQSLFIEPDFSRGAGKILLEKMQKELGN

SMILES | % Inhibition @ 10 uM [%]
O=S(=O)(c1ccc(F)cc1)N1CCC(Cc2ccccc2)CC1 | 8.31
Cc1nnc(NC(=O)c2ccc(S(=O)(=O)N3CC(C)CC(C)C3)cc2)o1 (stereo not shown) | 2.84
CC(=O)c1cccc(C(=O)N[C@@H](CC2CCCCC2)C(=O)NCC#N)c1 | -1.83
Cc1ccc(O)c(C(=O)c2cnc3c(c2)COc2ccc(C)cc2-3)c1 | 0.889
Nc1nc(COc2ccc(F)cc2)nc(N2CCCCC2)n1 | 3.81
Cc1cc(O)c(NC(=O)c2ccc3c(c2)OCCO3)cc1C | -11.5
CCN(CC)c1nc2c(-c3ccc(Cl)cc3)nnn2c2ccccc12 | -1.21
Cc1onc(-c2ccccc2)c1C(=O)N1N=C(C(F)F)CC1(O)C(F)F (stereo not shown) | 2.08
Cc1cc2nc(-c3cc(N)ccc3Cl)oc2cc1C | 3.65
CC1=C(C#N)C(C(F)(F)F)(C(F)(F)F)NC(c2ccc(C)cc2)=N1 | -3.53
O=c1c(-c2ccccc2)c(O)cc(-c2ccccc2)n1Cc1ccccc1 | 0.674
COCCNC(=O)c1ccc(CSCc2cccc(Cl)c2)o1 | 2.35
CCCCN1C(=O)C(Nc2nc3ccccc3s2)(C(F)(F)F)C2=C1CC(C)(C)CC2=O (stereo not shown) | 1.91
COC(=O)c1sc2ccccc2c1NC(=O)c1nc2ccccc2s1 | 4.67
CSC1=NSC2=NC(=O)/C(=C\c3ccc(SCc4ccco4)o3)C(=N)N12 | 5.34
Cc1cc(C(F)F)n2nc(C(=O)Nc3cc(Cl)ccc3O)nc2n1 | -1.32
COc1ccc(-c2nc3n(n2)C(c2cccs2)C(C(=O)Nc2cccnc2)=C(C)N3)cc1 (stereo not shown) | 1.96
COC(=O)c1c(NC(=O)Cn2nc(C(F)(F)F)c(Br)c2C)sc2c1CCCC2 | 8.94
CCCN(CC1CC1)C1CCN(Cc2ccccc2)CC1 | 3.68
CN(C)C(=O)c1c(NC(=O)c2ccccc2F)sc2c1CCC(C(C)(C)C)C2 (stereo not shown) | -5.63
O=C(CC1(O)C(=O)Nc2ccccc21)c1cccc(Br)c1 (stereo not shown) | -10.1
COc1ccc(C2=N/C(=C\c3c(F)cccc3Cl)C(=O)O2)cc1 | 2.75
COc1ccc(N(CC(=O)NC(C)(C)C)S(=O)(=O)c2ccc(C)cc2)c(OC)c1 | -0.185
COC(=O)C1=CN(C)C=C(C(=O)OC)C1c1ccc2c(c1)OCO2 | -1.48
CCN(Cc1ccccc1)S(=O)(=O)c1nnc(NC(=O)c2ccc(OC)c(OC)c2)s1 | -1.91

SMILES | % Inhibition @ 10 uM [%]
CS(=O)(=O)N(CC(=O)N1CCc2ccccc2C1)c1cccc(Cl)c1Cl | -5.54
O=C1N=C(N2CCOCC2)S/C1=C\c1ccc(Cl)cc1Cl | 3.53
CN(CC(=O)NC1CCN(Cc2ccccc2)CC1)S(=O)(=O)c1ccc(Br)s1 | -2.56
CC1=C(C(=O)Nc2ccc(F)cc2F)C(c2cccs2)C2=C(O)CCCC2=N1 (stereo not shown) | -1.64
COc1ccc(CCNC(=O)CCc2c(C)nc3nc(CN)nn3c2C)cc1OC | -3.96
Clc1ccc(Nc2nc(-c3ccc(Cl)c(Cl)c3)cs2)cc1 | -9.97
Cc1nn(-c2cc(Oc3ccccc3)ncn2)c(N)c1C#N | -2.78
CCCc1ccc(-c2ccc(C(=O)O)cc2)nc1 | 0.132
O=C(Cc1cccs1)Nc1noc2ccccc12 | 0.569
Cc1cc(C(F)(F)F)nn1Cc1ccc(C(=O)Nc2ncc(Br)s2)o1 | 3.94
O=C(COc1ccc(Br)cc1)Nc1cc(Cl)ccc1Cl | 3.54
CC1CCN(S(=O)(=O)c2ccc(NC(=O)c3cccc(NC(=O)c4ccccc4)c3)cc2)CC1 | 0.528
CCC(=O)N1c2ccccc2N=C2CC(C)(C)CC(O)=C2C1c1ccc(F)cc1 (stereo not shown) | -0.736
CC(C)CNC(CC(=O)O)c1ccccc1 (stereo not shown) | -0.834
Cc1nc2cc(S(=O)(=O)N3CCC(C(=O)N(C)Cc4ccccc4)CC3)ccc2n1C1CCCC1 | 3.24
CCOc1cc(/C=C2/SC(=O)N(C(C)C)C2=O)cc(Cl)c1O | -1.61
CCN(CC)CCCNC(=O)CNC(=O)Cn1c(C)cc2ccccc2c1=O | -3.78
CCN(CC)C(=O)c1cc2ccccc2oc1=O | -2.32
Cc1cc(C)c2nc(N3CCCC(C(=O)NCc4ccccc4)C3)sc2c1 (stereo not shown) | 0.137
CCn1c(/C(C#N)=C/c2cccc(O)c2)nc2ccccc21 | -2.87
COc1ccc(CCNC(=O)Cn2cnc3c(oc4ccccc43)c2=O)cc1OC | 0.526
COc1ccc2c(c1C)CCC/C2=N\OC(=O)c1ccccc1F | -1.92
N#CC1=C(N)Oc2c(c(=O)oc3ccccc23)C1c1cccc(C(F)(F)F)c1 (stereo not shown) | -5.96
O=C(c1cc(-c2ccc(Cl)s2)nc2ccccc12)N1CCN(c2ncccn2)CC1 | 4.28
C=CCNC(=O)Nc1nc2ccc(OCC)cc2s1 | -8.95

SMILES | % Inhibition @ 10 uM [%]
C=CCn1c(=O)c2c(nc(Br)n2Cc2ccc(Cl)cc2)n(C)c1=O | -3.37
COc1cccc(Oc2c(C(F)(F)F)oc3cc(O)ccc3c2=O)c1 | 0.628
CC1CCCC(NC(=O)Cn2ncc3c4ccccc4n(Cc4ccccc4)c3c2=O)C1C (stereo not shown) | 0.137
CCN1C(=O)N/C(=C/c2ccc(-c3ccc(C(=O)O)c(Cl)c3)o2)C1=O | 5.09
Cc1ccc(S(=O)(=O)/C(C#N)=C/c2c(Oc3ccccc3Cl)nc3ccccn3c2=O)cc1 | 0.189
O=C(CSc1nnc(CNC(=O)c2c(F)cccc2Cl)o1)NCCc1ccccc1 | -7.21
CC(C)CC(NC(=O)Nc1ccc2ncsc2c1)C(=O)NCC#N (stereo not shown) | 10.2
CCc1c(C)sc(NC(=O)C2CC3CCC2C3)c1C#N (stereo not shown) | -1.06
CCn1c2ccccc2c2cc(CN3CCN(c4cccc(C(F)(F)F)c4)CC3)ccc21 | -0.828
CCCc1nc(SC)ncc1C(=O)NCc1cc(OCC)c(OCC)c(OCC)c1 | 2.42
COc1cccc(C2C3=C(O)CCCC3=NC(C)=C2C(=O)Nc2ccc(C)cn2)c1OC (stereo not shown) | 2.26
Cc1ccc(C)c(CN2CCC(CNC(=O)CN3Cc4ccccc4C3=O)CC2)c1 | 3.87
COC(=O)c1nnn(-c2cccc(C)c2C)c1C(=O)OC | -5.27
CC(C)CS(=O)(=O)C1=NSC2=NC(=O)/C(=C\c3cccc4ccccc34)C(=N)N21 | -3.39
CCCCOc1ccc(C2C(C#N)=C(N)Oc3cc(O)ccc32)cc1 (stereo not shown) | -2.07
Clc1cccc(CNc2ncnc3c2cnn3-c2ccccc2)c1 | -4.28
Cc1ccc(S(=O)(=O)Cc2nc(-c3ccc(C(=O)NCCN4CCOCC4)cc3)oc2C)cc1 | -3.84
Cc1cccc(C(=O)NCc2cccs2)c1 | 1.7
CCC(CCC(C)C1CCC2C3CC=C4CC(O)CCC4(CO)C3CCC12C)C(C)C (stereo not shown) | 2.05
O=C(CN1CCOCC1)N1CCN(S(=O)(=O)c2ccccc2)C1c1ccccc1 (stereo not shown) | -0.169
CCOC(=O)C1=C(CNCc2ccccc2)NC(=O)NC1c1ccccc1 (stereo not shown) | 0.44
COc1ccc(/C=C2N=C(/C=C/c3ccc(OC)cc3)OC\2=O)cc1 | 4.38
COc1ccc(CNC(=O)C2CCN(c3nn4c(=O)cc(C)nc4s3)CC2)cc1 | -5.63
COc1ccc(NC(=O)c2cc3n(n2)C(C(F)(F)F)CC(c2ccc(F)cc2)N3)c(OC)c1 (stereo not shown) | -2.29
Cc1noc(C(=O)NC(C)(C)C)c1Cl | -3.45

SMILES | % Inhibition @ 10 uM [%]
Cc1ccc(OCc2nc(-c3ccc(C(=O)N4CCN(C(=O)c5ccco5)CC4)cc3)oc2C)cc1 | 5.24
COCCCNC(=O)CSc1[nH]c(-c2ccccc2)nc1-c1ccccc1 | -1.58
COc1ccc(-c2nc(CS(=O)CC(=O)NCCc3ccc(Cl)cc3)c(C)o2)cc1 (stereo not shown) | -2.85
CC(CN1CCCN(C)CC1)c1ccccc1 (stereo not shown) | -0.0494
COc1ccc(Br)cc1CNC(=O)c1cc(-c2ccccc2O)on1 | 3.29
O=C(c1cccnc1)N1N=C2CCCCCC2C1(O)C(F)(F)F (stereo not shown) | -1.79
CC1CC(Nc2ccccc2)c2ccccc2N1C(=O)c1ccc(C(C)(C)C)cc1 (stereo not shown) | -0.268
CS(=O)(=O)N(CC(N)=O)c1cccc2ccccc12 | -5.99
Clc1cccc(N2CCN(Cc3cccnc3)CC2)c1 | 6.8
Cc1nn(-c2ccccc2)c(-n2cccc2)c1C(=O)N1CCC(C(=O)NCc2ccccn2)CC1 | 3.2
Cc1[nH]c(C)c(C(=O)O)c1CNC1CCCCC1C (stereo not shown) | 1.41
Cc1c(C(=O)NC2CCSC2=O)cccc1[N+](=O)[O-] (stereo not shown) | 0.815
CCOc1nc(C)ccc1-c1noc(-c2ccccc2C)n1 | 6.82
CCOc1ccc(CCNC2=NS(=O)(=O)C(c3ccc(C)cc3)=C2C)cc1OCC | 2.27
Cc1ccc(-c2noc(CSc3nc(O)cc(-c4ccccc4)n3)n2)cc1 | -2.53
Cc1cc(C)cc(NC(=O)CSc2ncn(-c3ccccc3)n2)c1 | 0.316
Cc1ccc(-c2c3c(=O)n(C)c(=O)n(C)c3cn2C2CCCCCC2)cc1 | 0.366
CCOC(=O)N1CCN(C(=O)C2CCN(c3nn4c(=O)cc(C)nc4s3)CC2)CC1 | -3.79
CC1=CN2CC(O)CN=C2C=C1 (stereo not shown) | -0.197
CCCCNC(=O)c1cc(-c2ccc3c(c2)OCO3)nc2ccccc12 | 2.03
COc1ccccc1CNC(=O)CCCn1c(=O)c2cccn2c2cccnc21 | 2.3
Cc1nc2cc(S(=O)(=O)N3CCC(C(=O)NCC4CCCO4)CC3)ccc2n1C1CCCC1 (stereo not shown) | -3.53

Source: PMC6919601, “Identification of Plasmodium dipeptidyl aminopeptidase allosteric inhibitors by high throughput screening” (PLoS ONE, 2019)
